# Experimental data from the supplement of paper PMC11417369.
# ± gives the standard deviation of the averaged measurements. This is one part of the list.
# Tested on: PfAP2-EXP AP2 domain (GST-tagged)
# Assay: gcPBM binding intensity (ln(normalized median fluorescence intensity)); higher = stronger DNA binding
# Procedure, shortened: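 Plasmodium falciparum DNA-binding domains carrying a GST tag were expressed in E. coli and applied for 1 h, at about 25 μg on average, to an Agilent 4 × 180k array. The array held primer-extended double-stranded 36-bp intergenic genomic probes together with negative controls, and binding took place in 1× PBS with 1% milk, 0.2 mg/ml BSA, 0.5% salmon testes DNA and 0.03% Triton X-100. An Alexa488 anti-GST antibody detected bound protein, and the array was scanned at 488 nm. Binding intensity is taken as the highest Masliner-normalised natural-log median intensity across replicate spots of either probe orientation.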
row,Sequence,gcPBM binding intensity (ln)
1,TTAATAATTCTTAAAAGTACATAACTTTTTTTTTTT [XGTACX_site751],8.04 ± 0.45
2,GCTCTTTTGTTATGGTGTACCCTCCATGTAACATAA [XGTACX_site91],8.92 ± 0.24
3,AAATAAATATAAATAAATAAATAAATAAATATATAT [CACACA_negctrl_site827],8.39 ± 0.24
4,TTTTAAAAACGGCATGCATGTAATACATGGAAGGAA [TGCATGCA_site480],9.8 ± 0.3
5,TATATATAATTCATACATTTTAAATATATTTATTTA [CACACA_negctrl_site840],8.28 ± 0.43
6,TCTTTTATGCACATTGAGTAAACAACATATTTTTAA [TGCATGCA_negctrl_site561],8.86 ± 0.19
7,TTTAAAAAAATTCATGCACACGAAATAAAAAGCACC [CACACA_site8214],9.385 ± 0.035
8,TTTTTTATTAAAAGTAGTACACATGAAAAAAAAAAA [XGTACX_site5524],8.72 ± 0.37
9,TTAATATAGATATAACCACACACATACATCTAATTC [CACACA_site8519],8.65 ± 0.46
10,ATTTTTATAGAAATATGTACACAATATGTATATATT [XGTACX_site7993],8.16 ± 0.28
11,TAGAAGTACATATATGCATGTTAATTTTAAAGGAGG [TGCATGCA_site538],8.73 ± 0.35
12,ATATATATATAGTGTTGTACATTTAAAAATAATATA [XGTACX_site2627],9.87 ± 0.19
13,ATTAAAAATATTAGTTGTACTTTATATTTTCATATA [XGTACX_site3614],8.26 ± 0.35
14,AATCAAAATAATTTAACACACAATTTTAATACTGTT [CACACA_site2375],8.26 ± 0.35
15,TTTAAGAATTAACGGGGTACAATTCTTAAATATATA [XGTACX_site669],8.89 ± 0.42
16,AAATTCCATGAAAAAAGTACTAATTAATACAATATA [XGTACX_site2877],8.59 ± 0.38
17,ATGTGATAGAAGTACACACACATATGTATTTATAAT [CACACA_site5075],8.68 ± 0.49
18,TGTTTTATTTTTTTTGTGCACATACCTTTAGCATCA [GTGCAC_site9812],9.05 ± 0.38
19,TAATTATAATAAATATTCATATGTTCAAATATATAT [CACACA_negctrl_site151],8.09 ± 0.35
20,TATAAAATTATTAAACAAGAAAATTTTAGGTAATAC [TGCATGCA_negctrl_site568],8.56 ± 0.36
21,TTGATAAAACGTTATGCACACGTACGTGGGTATTTA [CACACA_site8445],8.79 ± 0.45
22,ATAATATATTTTTGAACACACAATATATATATATAT [CACACA_site4124],9.75 ± 0.27
23,ATATAAATATGACACACACACAAAAAAAATAAAGAC [CACACA_site6208],9.23 ± 0.45

row,Sequence,gcPBM binding intensity (ln)
1,TATAATATATTTTGATGTACAAATATATTATATATA [XGTACX_site8633],8.21 ± 0.19
2,AGTATACACGAACACACACACACATATATAAATATA [CACACA_site6913],8.69 ± 0.61
3,TAAAGTATTACAACCACACACACACCCATATATTAT [CACACA_site4159],8.82 ± 0.44
4,TAAGTGTATGTATATAAACACACATACATATATATA [CACACA_site8397],8.46 ± 0.28
5,TAATTTAAAAATTCCTGTACTCAGTTTTTTCTATTT [XGTACX_site4961],8.48 ± 0.39
6,ATTTTTTTATACAATTTTATATATTAAATATTATAA [GTGCAC_negctrl_site86],8.31 ± 0.41
7,TAAAAATGGGAGGGGTGTACTACACAATAAAATTAT [XGTACX_site5641],9.35 ± 0.31
8,TGTATTTTTAACATATGTACGAATAGCACGTGTTAT [XGTACX_site3640],8.89 ± 0.44
9,ATTTTTTCAAAATGGAAAACTTATCAGTGAAAAAAA [CACACA_negctrl_site1087],8.62 ± 0.45
10,CTTGACCCCCTTTGTTGTACTGACATTTGTGAGCTT [XGTACX_site591],9.19 ± 0.39
11,TATTTTATATGATAGGTGCATTTTTTTTTTTTTTTT [GTGCAC_site9757],8.95 ± 0.49
12,GTGCTACATCATATGTGTACATATACCAAACTGTAT [XGTACX_site8233],8.7 ± 0.042
13,TTAATAATGTTTTATTGTACTTTTTTGTGGGTTTAT [XGTACX_site5670],8.72 ± 0.53
14,ATATGTATTGGAGTGTGTACATATATATATATTTAT [XGTACX_site5633],8.64 ± 0.38
15,ATATACATTCAAGGCTGTACACTATATTTTTTTTTT [XGTACX_site6514],8.98 ± 0.54
16,TTTGTGTAAAGAATCAGTACATATAATATATATATA [XGTACX_site1972],9.34 ± 0.33
17,TTTATTTATCTTTACGCACACACTTGCATGTACAAA [CACACA_site1118],9.3 ± 0.26
18,TACCTACCTTTACGGAGTACACAATAATAGTTATAA [XGTACX_site6593],8.74 ± 0.15
19,GATGATACGATTATCACACATTTATACTTTCTACAT [CACACA_site5669],8.56 ± 0.39
20,TGTATACATTATTAAGTGCAAGTAGGGAAAAAAAAA,8.86 ± 0.43
21,ATATAAAAATAATAGAGTACAAAAAAAAAATGTATA [XGTACX_site7054],8.92 ± 0.4
22,ATATAACTTTTAAAAGCATGCAAATATTTACTCAAT [TGCATGCA_site396],9.16 ± 0.46
23,TAAACATATACACGTACATGCAACGGATTTTTTTTT [TGCATGCA_site70],8.71 ± 0.26

row,Sequence,gcPBM binding intensity (ln)
1,CAAGAAAAGAAACACACACACATATATATATATATA [CACACA_site3881],10.1 ± 0.26
2,TTTTTACTATAAGGGGAAAAAAAAAAAAATAATATA [XGTACX_negctrl_site279],8.32 ± 0.46
3,TATATATATATATGTGCACACATAATAAAAAAAAAA [CACACA_site3830],10.32 ± 0.064
4,ATATGATTAATTAAGTGTACGTATTTATAATTATAA [XGTACX_site5783],8.68 ± 0.29
5,ATTACAATTTTAATAGTGCATTTTTATATATTTCTA [GTGCAC_site9918],8.59 ± 0.2
6,GAAGACAATTATATGTGTACATATATATACATATAT [XGTACX_site4630],8.44 ± 0.25
7,GGAATTCATATTAATTGTACATTTAAAGATAGATGA [XGTACX_site3279],8.6 ± 0.48
8,AGTAGATATTATTATAGTACTTTTTATTTTATATTT [XGTACX_site1551],8.36 ± 0.23
9,ATATTAAAGATATATACACACATATTTATAAATATA [CACACA_site7127],8.4 ± 0.52
10,AAAATTTATGGAAGGTGTACTGTTAATTATGTATAT [XGTACX_site6446],8.75 ± 0.21
11,TAATATGTGGACTTTACACACTTGTTTTAAAATTCT [CACACA_site4605],8.32 ± 0.3
12,ATATATATATATATATGTACTTATTTATTTATTTAT [XGTACX_site4645],10.2 ± 0.51
13,ATATTTTACATATTTGCACACATATATTTATATACA [CACACA_site855],8.78 ± 0.26
14,TTAATATATTTTAAAAGTACATAATATTATTTTTTA [XGTACX_site3642],8.04 ± 0.26
15,AAGAAAAGAACAAGAGCATGCACTTAATAAGAATAA [TGCATGCA_site818],9.76 ± 0.22
16,TTTAAATACAGACATACACACATACACAGACATATA [CACACA_site4460],8.69 ± 0.58
17,AAAAAAAACAGACACACACACATACAAAATATATAT [CACACA_site1449],8.73 ± 0.47
18,CTCTATTGTTAAAAGGTGCTTTTATGATTTTATATA [GTGCAC_site9409],8.6 ± 0.2
19,ATATTTTTATGTACTTCAAAAAAAAAGAAAAACAAA [CACACA_negctrl_site970],8.46 ± 0.4
20,TATAGTTTTGAAAACAAACACACAAAAAAAAAAAAA [CACACA_site1691],8.43 ± 0.55
21,AAGAGGTTAATGAAATGTACACATATATATATATAT [XGTACX_site1861],10.2 ± 0.17
22,TATGTAACCTGTTTTACACACCCCCACCCCCCTCTT [CACACA_site319],10.3 ± 0.17
23,ATAATTTCACAAATAGTGCAAAAATTAGTAAGAATA [GTGCAC_site9648],8.68 ± 0.25

row,Sequence,gcPBM binding intensity (ln)
1,TTTTTTTTCTATGTGGTGCACATTATTTTTTTTTTT,9.03 ± 0.16
2,TTTTATAAATATTATACATGCATAATGATAAAAAAA [TGCATGCA_site927],8.83 ± 0.28
3,AAAAATAAAGGATATACACACTAATTCTATAAATAT [CACACA_site7344],8.45 ± 0.29
4,TATAAGTATTAATACACACACAAAATAATAAAAAAA [CACACA_site3481],8.7 ± 0.21
5,GTCTCGATAATGAAAAGTACAAAATAAAAATAATAA [XGTACX_site6471],8.66 ± 0.35
6,TAAAGAATAATACATTCACACAATATTATAAAAATA [CACACA_site5986],8.38 ± 0.33
7,TATGATTAATTACCACAATTGACAAAAAAAAAAAAA [CACACA_negctrl_site336],8.36 ± 0.53
8,GAAATGTCATATAATAGTACACACATGAAAATATAA [XGTACX_site6838],8.81 ± 0.41
9,TTGTATGAATTTATTTTTATTGATAATTAATATGTA [TGCATGCA_negctrl_site143],8.18 ± 0.47
10,ATACAAAAGGGGAATACACACACATATATATATATA [CACACA_site8694],10.1 ± 0.33
11,AATAAACATAGATGTACACACATATACAGATATATA [CACACA_site5570],8.54 ± 0.38
12,TTGTTCTATATATATGCATGCACGTATGTTAAATTA [TGCATGCA_site659],10.17 ± 0.028
13,TATTAATTTTTATACGCATGTGTATAGTAATATATA [TGCATGCA_site1010],8.49 ± 0.35
14,TCTCATATATTGAATTGTACATATGTTAAAATATAG [XGTACX_site6764],8.62 ± 0.49
15,TATTTATTTTTTTTTGTGCACTTAATATAATCTTAC,8.94 ± 0.3
16,ACACTAACATCATATCGTACATTTGTTAATTTATAA [XGTACX_site8654],8.71 ± 0.39
17,TTTTCCCTCTTATTCACACAAAAAAAATAAAATAAA [CACACA_site4656],8.49 ± 0.61
18,TTTTTATTTATATGATACTTATATATATATATATAT [CACACA_negctrl_site462],10.2 ± 0.16
19,TTCTTAATATTGCATGCACACTATATAATAATTGAA [CACACA_site4720],10.41 ± 0.057
20,TCTTTTAAAAAAATTTGTACATATTTTTTGTATTAT [XGTACX_site67],8.54 ± 0.43
